Laboratory results reported in PubChem BioAssay (NCATS).
Inconclusive means that the source gave no clear call. Such entries were picked first, then a sample of the others. No potency is given beside an inconclusive call; the fits are too rough. Calls of active or inactive are those of the source. Calls follow the shape of the dose curve; as a rule, active = well fitted curve in the direction sought with a large enough effect; inconclusive = small, poorly fitted or top-dose-only effect, or another doubt; inactive = no such curve, though single readings can be large; an effect the other way counts as inactive or inconclusive.

target: Cellular tumor antigen p53 (Homo sapiens) (UniProt P04637); test: Primary qHTS for small molecule compounds that upregulate eGFP-tagged delta133p53alpha (in C-terminal) cells. (AID 2060324); details: NCI-H358 delta133p53alpha-eGFP (C-terminal tag), GFP fluorescence imaging, 24 h; series mostly up to 57.5 µM; GFP increase (activation): at the top concentration
Procedure, shortened: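 NCI-H358 cells with doxycycline-inducible D133p53a-eGFP (C-terminal tag), pre-induced 24 h with 100 ng/ml doxycycline, plated 800/well in doxycycline-free medium and treated 24 h at 37 °C with compound titrations. Cells were then fixed and Hoechst-stained, and GFP intensity was read by laser scanning cytometry.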
Potency is read from the fitted curve at half-maximal effect; tags tell the direction and shape of the fitted curve.

Sequence of UniProt P04637 (P04637 whole entry, looked up): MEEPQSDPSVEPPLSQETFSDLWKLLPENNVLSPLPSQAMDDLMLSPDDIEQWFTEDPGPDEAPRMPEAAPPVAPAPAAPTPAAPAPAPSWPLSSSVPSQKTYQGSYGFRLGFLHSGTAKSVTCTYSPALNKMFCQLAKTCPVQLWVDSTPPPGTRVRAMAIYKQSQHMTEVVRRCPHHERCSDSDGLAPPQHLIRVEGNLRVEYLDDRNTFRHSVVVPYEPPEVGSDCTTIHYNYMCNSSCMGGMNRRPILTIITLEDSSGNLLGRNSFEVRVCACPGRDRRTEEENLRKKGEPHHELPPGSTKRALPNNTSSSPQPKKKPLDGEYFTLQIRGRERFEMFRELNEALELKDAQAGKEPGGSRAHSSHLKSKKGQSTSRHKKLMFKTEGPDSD

SMILES	Potency
CN[C@H]1CC[C@@H](c2ccc(Cl)c(Cl)c2)c2ccccc21	inconclusive [activator, single point]
CCN(CC)CCOc1ccc(Nc2ncc3cc(-c4c(Cl)cccc4Cl)c(=O)n(C)c3n2)cc1	active: 26.9 µM
CNCCC(Oc1ccc(C(F)(F)F)cc1)c1ccccc1 (configuration not stated)	inconclusive [activator, partial curve, poor fit]

target: Retinaldehyde dehydrogenase 3 (Homo sapiens) (UniProt P47895); test: qHTS for Inhibitors of the Aldehyde Dehydrogenase Family (ALDH1A3) Validation screen (AID 2061312); details: ALDH1A3 enzyme inhibition qHTS validation, fluorescence; activity change, negative = inhibition: at 84.7 µM (top of the series); also: nearly all actives have a fitted effect of over 45% in size; as to activity change, negative = inhibition: % is scaled to controls: 0 for no effect and ±100 for the full control effect

SMILES	activity change, negative = inhibition	Potency
CCc1cccc(N(C)C(N)=Nc2cccc3ccccc23)c1	inactive: -1.22% [at 42.4 µM]	–
CCN(CC)CCOc1ccc(Nc2ncc3cc(-c4c(Cl)cccc4Cl)c(=O)n(C)c3n2)cc1	–	inconclusive [inhibitor, full curve]
C[C@H](Cc1ccc(O)c(O)c1)[C@@H](C)Cc1ccc(O)c(O)c1	–	inconclusive [inhibitor, full curve]
COc1cc2c(Oc3ccc(-c4cnc(Nc5ccc(F)cc5)n(C)c4=O)cc3F)ccnc2cc1OCCCN1CCOCC1	–	active: 11.2 µM
